# Reference: a collection of fitness landscapes (doi:10.1016/j.celrep.2020.107928)
# Whole data set: some 81,000 sequences, median “one-hybrid fitness for binding NBS DNA” near -0.1, cut for the highest 2% near 0.36. The list shows a part of the results.
# B1: Caulobacter ParB omega fusion; a variant is named by its letters at X, in order, B8GW30 (parent)
# chain: MESVVVGEPGMSEGRRGLGRGLSALLGEVDAAPAQAPGEQLGGSREAPIEILQRNPDQPRRTFREEDLEDLSNSIREKGVLQPILVRPSPDTAGEYQIVAGERAWRAAQRAGLKTVPIMVRELDDLAVLEIGIIENVQRADLNVLEEALSYKVLMEKFERTQENIAQTIGKSXSHVANXMRLLXLPDEVQSYLVSGELTAXHARAIAAAADPVALAKQIIEGGLSVRETEALARKAPNLSAGKSKGGRPPRVKDTDTQALESDLSSVLGLDVSIDHRGSTGTLTITYATLEQLDDLCNRLTRGI
# Variants of: B1
# Experiment: one-hybrid fitness for binding NBS DNA (the Noc-binding site; scaled: cognate 1, non-cognate 0); higher = stronger binding
# Details: with NBS DNA site
# How it was run: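 Fitness here means the log change in variant-to-wild-type read ratio between plasmids sequenced before and after selection. That scale was set so cognate equals 1 and non-cognate equals 0. The selection was a bacterial one-hybrid screen of Caulobacter ParB libraries, four specificity codons randomised, in E. coli USO carrying a HIS3 reporter with the site 19 bp from the promoter, grown 48 hours at 37°C on M9-minus-histidine with 0.1 mM IPTG and 5 mM 3-AT.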
row,Variant,one-hybrid fitness for binding NBS DNA
1,LNRR,≤ 0.2
2,PATM,≤ 0.2
3,GVAR,≤ 0.2
4,YTAA,≤ 0.2
5,INDI,≤ 0.2
6,AWNR,≤ 0.2
7,RTAC,≤ 0.2
8,SFDF,≤ 0.2
9,GSLK,≤ 0.2
10,PETM,≤ 0.2
11,RQMW,≤ 0.2
12,QSCS,0.296
13,MARV,≤ 0.2
14,RFLH,≤ 0.2
15,NMAP,≤ 0.2
16,VDRG,≤ 0.2
17,YRFS,≤ 0.2
18,PHPH,≤ 0.2
19,CPEG,≤ 0.2
20,QRPH,≤ 0.2
21,PPKV,≤ 0.2
22,EPKG,≤ 0.2
23,PPDN,≤ 0.2
24,VFFA,≤ 0.2
25,VTVT,≤ 0.2

row,Variant,one-hybrid fitness for binding NBS DNA
1,YNNK,≤ 0.2
2,KPVC,≤ 0.2
3,GNIG,≤ 0.2
4,DDCV,≤ 0.2
5,ELRK,≤ 0.2
6,EAFG,≤ 0.2
7,RAHL,≤ 0.2
8,SRKV,≤ 0.2
9,RKYL,≤ 0.2
10,IQYA,≤ 0.2
11,HSRS,≤ 0.2
12,AQIA,≤ 0.2
13,PWSP,≤ 0.2
14,MGCR,≤ 0.2
15,FNNA,≤ 0.2
16,NSRS,≤ 0.2
17,RRVN,0.238
18,RKAK,≤ 0.2
19,HKAR,≤ 0.2
20,LNDS,≤ 0.2
21,NLLC,≤ 0.2
22,DQCR,≤ 0.2
23,FQIS,≤ 0.2
24,PAKR,0.203
25,TQLW,≤ 0.2

row,Variant,one-hybrid fitness for binding NBS DNA
1,SETR,≤ 0.2
2,RPWC,≤ 0.2
3,NFAV,≤ 0.2
4,MVWG,≤ 0.2
5,WAPS,≤ 0.2
6,AGWN,≤ 0.2
7,EPDG,≤ 0.2
8,CRQY,≤ 0.2
9,RDKF,≤ 0.2
10,RPQV,≤ 0.2
11,WLHG,≤ 0.2
12,MSCE,≤ 0.2
13,YKRH,≤ 0.2
14,MSKI,≤ 0.2
15,DKHT,≤ 0.2
16,MKET,≤ 0.2
17,KTDL,≤ 0.2
18,GHSI,≤ 0.2
19,NCGR,≤ 0.2
20,DTNS,≤ 0.2
21,QMGC,≤ 0.2
22,VQPR,≤ 0.2
23,QYNG,≤ 0.2
24,CRLI,≤ 0.2
25,RWAG,≤ 0.2

row,Variant,one-hybrid fitness for binding NBS DNA
1,NNCL,≤ 0.2
2,HLML,≤ 0.2
3,RITN,≤ 0.2
4,GLES,≤ 0.2
5,RYGI,≤ 0.2
6,GQNS,≤ 0.2
7,KEMR,≤ 0.2
8,QIKG,≤ 0.2
9,YRHA,≤ 0.2
10,FWFS,≤ 0.2
11,TKTT,≤ 0.2
12,WFKT,≤ 0.2
13,KRDY,≤ 0.2
14,LTCR,≤ 0.2
15,FPAL,≤ 0.2
16,ERNK,≤ 0.2
17,NDRK,≤ 0.2
18,YRCL,≤ 0.2
19,NPKG,≤ 0.2
20,VVCS,≤ 0.2
21,KATM,≤ 0.2
22,RFRW,≤ 0.2
23,SHTC,≤ 0.2
24,QFQC,≤ 0.2
25,PING,≤ 0.2

row,Variant,one-hybrid fitness for binding NBS DNA
1,PMPA,≤ 0.2
2,VGMR,≤ 0.2
3,ISDN,≤ 0.2
4,FNWR,≤ 0.2
5,RVVE,≤ 0.2
6,TDPR,≤ 0.2
7,GPRC,≤ 0.2
8,PFVR,≤ 0.2
9,ASIV,≤ 0.2
10,KARW,≤ 0.2
11,SYSC,≤ 0.2
12,ACHR,≤ 0.2
13,YRPG,≤ 0.2
14,NPQR,≤ 0.2
15,HRYQ,≤ 0.2
16,LKSM,≤ 0.2
17,EGLS,≤ 0.2
18,LAHI,≤ 0.2
19,YQEY,≤ 0.2
20,KIST,≤ 0.2
21,LDAI,≤ 0.2
22,TSEL,≤ 0.2
23,NPGT,≤ 0.2
24,VNKG,≤ 0.2
25,EISS,≤ 0.2

row,Variant,one-hybrid fitness for binding NBS DNA
1,AHLR,≤ 0.2
2,NLLI,≤ 0.2
3,EKPW,≤ 0.2
4,QHCN,≤ 0.2
5,GDAP,≤ 0.2
6,RHEM,≤ 0.2
7,PHGQ,≤ 0.2
8,TFTN,≤ 0.2
9,VRQF,≤ 0.2
10,HSNF,≤ 0.2
11,ISNM,≤ 0.2
12,GHHW,≤ 0.2
13,VRKQ,≤ 0.2
14,SCTP,≤ 0.2
15,NIIF,≤ 0.2
16,KRCT,0.558
17,TGTV,≤ 0.2
18,KRLD,≤ 0.2
19,AIGS,≤ 0.2
20,RFHH,≤ 0.2
21,GETL,≤ 0.2
22,TMYS,≤ 0.2
23,QHHS,0.386
24,MRFR,≤ 0.2
25,PEQS,≤ 0.2

row,Variant,one-hybrid fitness for binding NBS DNA
1,TCQE,≤ 0.2
2,HWSM,≤ 0.2
3,VEES,≤ 0.2
4,PLCT,≤ 0.2
5,KSNV,≤ 0.2
6,QLWM,≤ 0.2
7,CLSN,≤ 0.2
8,NSDR,≤ 0.2
9,WTSL,≤ 0.2
10,YSQR,≤ 0.2
11,TMCY,≤ 0.2
12,LRPQ,≤ 0.2
13,SPVW,≤ 0.2
14,QYQR,0.493
15,HTMN,≤ 0.2
16,VTKF,≤ 0.2
17,IGCT,≤ 0.2
18,HCFR,≤ 0.2
19,PAGQ,≤ 0.2
20,ERPG,≤ 0.2
21,IDKG,≤ 0.2
22,QPPT,≤ 0.2
23,SHLP,≤ 0.2
24,WAPK,≤ 0.2
25,NLPK,≤ 0.2

row,Variant,one-hybrid fitness for binding NBS DNA
1,QPQR,≤ 0.2
2,TFNP,≤ 0.2
3,ILRI,≤ 0.2
4,RIGQ,≤ 0.2
5,GALV,≤ 0.2
6,TTPD,≤ 0.2
7,VKRG,≤ 0.2
8,VQEC,≤ 0.2
9,NLPW,≤ 0.2
10,SQKC,≤ 0.2
11,NDDI,≤ 0.2
12,CPTG,≤ 0.2
13,CRSW,≤ 0.2
14,WNNC,≤ 0.2
15,GMRV,≤ 0.2
16,RIMH,≤ 0.2
17,AETE,≤ 0.2
18,NMTF,≤ 0.2
19,GPQM,≤ 0.2
20,RYIQ,≤ 0.2
